# Among all 280,000 compounds or so, about 100 (0.036%) were called active. Inconclusive means that the source gave no clear call. Such entries were picked first, then a sample of the others. Calls come from the whole dose curve; as a rule, active = well fitted inhibition curve with a large enough effect in the signal ratio, with a control signal flat (not every such curve was filed as active); inconclusive = small, poorly fitted or top-dose-only effect, or effect the other way, or a change in a side signal; inactive = no such curve, though single readings can be large or run the other way; the % refers to the signal ratio. Potencies beside an inconclusive call are fits to weak or partial responses and may not hold up. “Side channel” marks fits to a control or component signal instead of the main read-out.
# Molecular target: Muscleblind-like protein 1 (Homo sapiens) (UniProt Q9NR56)
# Experiment: qHTS Assay for Inhibitors of MBNL1-poly(CUG) RNA binding
# Conditions: TR-FRET MBNL1-His/biotin-(CUG)12 binding, 665/545 ratio; activity change, negative = inhibition: at 57.5 µM (top of the series)
# Summary of the method: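 TR-FRET between His-tagged MBNL1 and biotin-(CUG)12 RNA, detected with Tb anti-His antibody (0.055 ng/ul) and streptavidin-XL665 (5 nM), 60 min at room temperature. Compounds titrated 92 nM to 58 uM; 665/545 nm ratio normalized to buffer and complex controls.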
# % is set by controls: 0 for no effect and ±100 for the full control effect; potency is the fitted concentration of half-maximal effect; tags give direction and shape of the fitted curve or compound fluorescence and quenching.
# Sequence of UniProt Q9NR56 (Q9NR56 whole entry, looked up): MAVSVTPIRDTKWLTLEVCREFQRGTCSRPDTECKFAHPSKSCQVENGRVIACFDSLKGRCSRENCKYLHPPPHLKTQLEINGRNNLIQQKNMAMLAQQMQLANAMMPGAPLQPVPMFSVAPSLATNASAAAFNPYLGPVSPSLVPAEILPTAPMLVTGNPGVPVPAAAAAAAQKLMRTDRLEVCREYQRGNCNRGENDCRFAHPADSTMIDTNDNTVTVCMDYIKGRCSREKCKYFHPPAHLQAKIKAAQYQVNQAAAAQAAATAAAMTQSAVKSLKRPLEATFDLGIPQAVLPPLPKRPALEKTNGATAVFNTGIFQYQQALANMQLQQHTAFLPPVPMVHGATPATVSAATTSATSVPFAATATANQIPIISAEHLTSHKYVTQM
Compound,Potency,"activity change, negative = inhibition"
Cc1c(C=O)c2ccccn2c1C(=O)c1cccs1,"inconclusive: 28.2 µM [quencher, side channel, partial curve]",
Nc1nnc(SCC(=O)c2ccc([N+](=O)[O-])cc2)s1,"inconclusive: 11.2 µM [quencher, partial curve]",
O=C(CCN1C(=O)/C(=C/c2ccc(Cl)cc2)SC1=S)NCCCn1ccnc1,"inconclusive: 17.8 µM [quencher, side channel, partial curve]",
Cc1ccc(S(=O)(=O)NC2CCCCC2)c2nsnc12,"inconclusive: 14.1 µM [quencher, side channel, partial curve]",
O=C1CCCc2c1sc1nc3n(c(=O)c21)CCCCC3,"inconclusive: 10 µM [quencher, side channel, partial curve]",
O=C(C[n+]1cc(-c2ccc(Cl)c(Cl)c2)n2c1CCC2)N1c2ccccc2Sc2ccccc21,"inconclusive: 200 µM [inhibitor, partial curve, poor fit]",
c1ccc2c(c1)ncn2-c1ccc(-c2ccnc3ncnn23)cc1,"inconclusive: 8.91 µM [quencher, side channel, partial curve]",
c1ccc(-c2cn3nc4c(nc3n2)CCCC4)cc1,"inconclusive: 5.01 µM [quencher, side channel, full curve]",
CNc1sc(C(=O)c2ccc(F)cc2)c(N)c1-c1nc2ccccc2s1,"inconclusive: 17.8 µM [quencher, partial curve]",
COc1cccc2c1OC1(CCN(C(C)C)CC1)N1N=C(c3cccnc3)CC21 (configuration not stated),"inconclusive: 39.8 µM [quencher, side channel, single point]",
Cn1c(C(=O)N2CCC(C(N)=O)CC2)cc2cc(Cl)ccc21,inactive,
CCOC(=O)C1=NN(c2ccc(OC)cc2)C(c2ccccc2)CC1=O (configuration not stated),"inconclusive: 0.891 µM [quencher, side channel, full curve, poor fit]",
NC(=O)c1nsc(C(=O)N(CC(=O)NC2CCCC2)c2cnc3ccccc3c2)c1N,"inconclusive: 17.8 µM [quencher, side channel, partial curve]",
CCc1nnc(NS(=O)(=O)c2ccc(N=Cc3c(C)[nH]n(-c4ccc(C)cc4)c3=O)cc2)s1,"inconclusive: 31.6 µM [quencher, side channel, single point]",
CC(=O)NCC(=O)N1CCCC(C(=O)c2ccc3c4c(cccc24)CC3)C1 (configuration not stated),"inconclusive: 22.4 µM [quencher, side channel, partial curve]",
Cc1cccc(/C=N\Nc2cn[nH]c(=O)c2Cl)c1,"inconclusive: 31.6 µM [quencher, side channel, single point]",
CCSc1ncc(/C=N/Nc2ccc(Cl)cc2)n1C,"inconclusive: 31.6 µM [quencher, side channel, single point]",
COc1ccc(NC(=O)c2ccc3nc(-c4ccccc4)c(-c4ccccc4)nc3c2)c(OC)c1,"inconclusive: 3.55 µM [fluorescent, side channel, partial curve]",
CC[C@@H]1CC=C[C@H]2[C@H]1C(=O)N(Cc1ccccc1)[C@H]2c1ccc(C(F)(F)F)cc1,inactive,

Compound,Potency,"activity change, negative = inhibition"
Cc1cccnc1NC(=O)c1ccccc1-c1ccccc1C(=O)Nc1ncccc1C,"inconclusive: 1.78 µM [fluorescent, side channel, full curve, poor fit]",
Cc1ccc2cc(C(c3nnnn3C(C)(C)C)N3CCCC3)c(=O)[nH]c2c1C (configuration not stated),"inconclusive: 39.8 µM [quencher, side channel, single point]",
Nc1nonc1-n1nnc(C(=O)N/N=C/c2ccoc2)c1CSc1ccccc1,"inconclusive: 4.47 µM [quencher, side channel, full curve, poor fit]",
O=C(O)c1ccc(NC(CSCc2ccc(F)cc2)C(=O)O)c([N+](=O)[O-])c1 (configuration not stated),"inconclusive: 22.4 µM [quencher, single point]",
O=C(Nc1ccccc1N1CCN(C(=O)c2ccc(Cl)cc2)CC1)c1ccc(Br)cc1,inactive,
CCOc1cc(CN2CCSCC2)ccc1O,inactive,
COc1cc(OC)c(OC)cc1/C=C1\Oc2cc(OCC(=O)N3Cc4ccccc4C[C@H]3C(=O)O)ccc2C1=O,"inconclusive: 14.1 µM [quencher, partial curve]",
COC(=O)c1[nH]c2ccc(Cl)cc2c1NC(=O)CN1CCc2cc(OC)c(OC)cc2C1,inactive,
CCOc1ccc2nc(NCCNC(=S)NCCCN(C)C)c(C#N)cc2c1,"inconclusive: 31.6 µM [quencher, single point]",
O=C(N/N=C/c1ccc2ncccc2c1)c1cccc([N+](=O)[O-])c1,"inconclusive: 3.16 µM [quencher, side channel, full curve]",
CCN1C(=O)c2ccc(C(=O)Nc3ncc(C)s3)cc2C1=O,"inconclusive: 2.51 µM [quencher, full curve, poor fit]",
CCOc1cccc2cc(-c3csc(NC(=O)CCC(=O)NCCCN4CCC(C)CC4)n3)c(=O)oc12,"inconclusive: 20 µM [quencher, side channel, partial curve]",
O=S(=O)(NCc1ccccn1)c1cc(C(F)(F)F)ccc1Cl,inactive,
CCOC(=O)c1ccc(/C=C2/C=C(c3ccccc3)N(c3ccc(Cl)c(C(=O)O)c3)C2=O)cc1,,inactive: 14% [at 11.5 µM]
Cc1ccc(C(=O)N/C(=C\c2ccco2)C(=O)N2CCOCC2)cc1C,"inconclusive: 8.91 µM [quencher, side channel, partial curve]",
O=C(c1ccc(Cl)c(Cl)c1)N1CCC(=O)N(C(COCc2cccc(C(F)(F)F)c2)Cc2ccccc2)CC1 (configuration not stated),"inconclusive: 63.1 µM [inhibitor, partial curve]",
Cc1ccc(-n2ncc3c(SCc4cccc(C)c4)ncnc32)cc1,inactive,
CCNS(=O)(=O)c1ccc2c3c(cccc13)C(=O)N2,"inconclusive: 15.8 µM [quencher, side channel, partial curve]",

# Reference: PubChem BioAssay AID2675 (National Center for Advancing Translational Sciences (NCATS), 2010)
